# Whole data set: some 33,000 sequences, median “E-score (-0.5 to 0.5)” near -0.01, cut for the highest 2% near 0.26. This is one part of the list.
# Target: Ste12 (UniProt P13574)
# Assay: PBM E-score (8-mer binding enrichment) (E-score (-0.5 to 0.5)); higher = stronger / more preferred TF binding; most listed sequences are background and not binding sites
# Conditions: protein concentration: 200 nM; construct: GST-DNA-binding domain
# Description: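 Universal 'all 10-mer' protein binding microarrays (Agilent AMADID 015681) probed with GST-tagged S. cerevisiae TFs (full-length or DBD) made by in vitro transcription/translation (PURExpress), about 100-200 nM. Bound TF was detected with fluorescent anti-GST. Each ungapped 8-mer (which stands for itself and its reverse complement) is scored by the PBM enrichment score (E-score), a modified Wilcoxon-Mann-Whitney statistic from -0.5 to +0.5, computed with the Universal PBM Analysis Suite. Scale: above 0.35 generally sequence-specific binding.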
row,Sequence,PBM E-score
1,ACCACACA,-0.0462
2,ACAGCTGC,-0.013
3,ATGATTGA,0.147
4,ATAACCTG,-0.136
5,ACCAAGCG,-0.0473
6,CCCTAAAA,0.125
7,GTCGGCCA,-0.255
8,GGATGAAC,-0.196
9,CCGATCAA,-0.00428
10,CCTAGGAG,-0.202
11,ATCGGAAG,0.023
12,TAATAGTA,0.117
13,GGGCGGAA,0.119
14,ACATCCAA,0.0954
15,GTCCTCCA,0.0678
16,GTTTATTA,0.304
17,AACGGACT,-0.213
18,ACGGCACA,-0.0799
19,CGGGTACG,-0.197
20,CTTAGCCA,-0.156
21,CTCAGTGC,-0.0358
22,CAGGGAGC,-0.273
23,CATAACTA,0.105
24,GAGGAGAA,-0.202
25,GGTGCCTA,-0.201

row,Sequence,PBM E-score
1,CAATACAA,0.294
2,CACATTTC,0.137
3,CAGAGCTA,-0.273
4,AAAAGATT,0.127
5,CGCACAAG,0.0509
6,AGTAACAC,0.0934
7,CTCGGGAA,-0.0785
8,CTAGCGCA,-0.131
9,CCAATTAG,0.0909
10,ATGGGACC,-0.062
11,CCAGACTA,0.00734
12,TACATGTA,0.129
13,CCCCCCAC,-0.184
14,CAGGCAGC,-0.0436
15,AGATCATC,-0.174
16,ACGCTACT,0.0386
17,ATTTATAA,0.267
18,CTTGAGTA,-0.208
19,ACAGAAGG,-0.173
20,CTAGTAAG,-0.0551
21,ATCTAATC,0.0131
22,ACCCAACA,-0.0606
23,CTTGATTC,0.0606
24,CCGGATGC,-0.205
25,AAGGAGAA,-0.0234

row,Sequence,PBM E-score
1,ATACTCTG,0.0799
2,ATAGTTGA,0.205
3,AGAGCTAA,-0.177
4,ACGAAGAG,-0.0093
5,CTGGCAAC,-0.101
6,AGTCAGAA,0.127
7,TATCTAGA,-0.02
8,GGTAGCAA,-0.233
9,AGTTAGAC,-0.0969
10,ATAGATCA,0.0307
11,ATGCAAGC,-0.13
12,ATTGTTGA,-0.0395
13,AAGTAGTG,-0.075
14,ATAACACA,0.141
15,CATCGGCC,-0.0877
16,CATATTGC,-0.0905
17,GAAGCAGC,-0.114
18,AGGTAGCC,-0.26
19,ACAGCCTG,0.0236
20,CGGCACAC,0.124
21,CATGATGG,-0.0574
22,AGCTTTAG,-0.119
23,CCTTGGGC,-0.158
24,CTCTAGAA,-0.0761
25,GGGAGAGA,-0.216

row,Sequence,PBM E-score
1,TAAATTCA,-0.0128
2,CCACCAGA,0.0755
3,GTACATCA,0.133
4,ATCGAATA,0.0396
5,AGCTGCCT,-0.217
6,TCATATAA,0.207
7,TAACCTAA,0.0929
8,CTGAAGAA,-0.0851
9,CTCACCAC,-0.168
10,ACCGTGTA,-0.0843
11,CAATCCAC,0.0709
12,TAAGCTGA,-0.0395
13,AACCGGTA,-0.00864
14,GTATGCAA,-0.157
15,GAATTGGC,-0.115
16,ATAAACAT,0.228
17,GGCAAACA,0.0903
18,CCAGATCC,-0.149
19,CGTGCAAA,-0.24
20,ACGTCGAG,-0.101
21,GAACGTGC,-0.105
22,GAGAGTGC,-0.186
23,CCCATTAG,-0.25
24,ATATGAGA,0.222
25,ACTAATTG,0.213

row,Sequence,PBM E-score
1,AACAACTC,0.0625
2,CGCCCTAC,-0.11
3,GCGTGTAA,-0.116
4,CGACGTAC,0.0541
5,CGTAGACG,-0.284
6,GTCGAAGA,-0.0112
7,ACGGTCCG,-0.265
8,GGGCACAA,0.112
9,CATCTCCC,-0.0229
10,CGCCGCGA,0.0904
11,GTTAACTA,0.0413
12,CGTCCCAA,0.0411
13,CTCACCCC,0.0878
14,TCAGTAAA,0.131
15,CCTCATAC,0.0504
16,AGGCCATG,-0.0997
17,GCAAAAAC,0.0563
18,CTCAAGAC,-0.0036
19,ACCTATAG,-0.108
20,ACAGATGC,-0.158
21,AGTGACTA,-0.0881
22,AACAAACC,0.116
23,CGACTGCA,-0.0549
24,AACCGACT,-0.0695
25,CTGTAAGA,-0.00245

row,Sequence,PBM E-score
1,CCGTCTAA,-0.0731
2,GTTGAAAA,0.206
3,AAGGCGAG,-0.186
4,CAGTTCAG,-0.0105
5,AAAATTAC,0.188
6,ATGGCCAC,-0.235
7,TAAGAGGA,-0.127
8,ATGAAAAT,0.166
9,CAGATTTC,0.00467
10,CAAGTCAC,0.0321
11,GAGCACCC,-0.0776
12,GGGGATAC,-0.0607
13,ACAGTTTA,0.108
14,CGCAACGC,-0.01
15,GCGCACAC,0.00745
16,CAGAGAAC,-0.0695
17,TTAGGGAA,-0.0525
18,AGGCACGA,-0.196
19,ATGAAAGC,0.0566
20,TCTCTACA,-0.0356
21,GCGGTCCC,-0.154
22,AGTCTGGA,-0.0149
23,AACAAACG,0.14
24,GCTTCCTA,-0.079
25,CCTCGATA,0.00614

row,Sequence,PBM E-score
1,AGTCAAAG,-0.117
2,ACGCACAA,0.072
3,AATGAAGG,-0.0327
4,ACGTGCCC,-0.0826
5,GCCGCCCA,0.0226
6,GACTGCCA,0.107
7,GGCTTTCA,0.0292
8,GTTTCACA,0.447
9,CGTTGGAG,-0.0815
10,CCTAGAGC,-0.189
11,CACGCCTA,-0.159
12,CGGATTAC,0.0808
13,AATACACC,0.208
14,CGACCTAG,-0.124
15,AGACTTCC,-0.108
16,GATCATAC,0.0216
17,AGGAATGG,-0.0752
18,ACCGCAAG,0.081
19,CTTTGTCA,-0.00195
20,GGCAGACA,0.0195
21,GCCCCAAA,0.00773
22,TCGCTTCA,0.0193
